# Laboratory results reported in PubChem BioAssay AID686979 (National Center for Advancing Translational Sciences (NCATS), 2013).
# “And” between values parts separate entries of the source, which are not always exact repeats. Equal entries are not always repeated. The campaign covered roughly 420,000 compounds. About 50,000 (12%) were called active. This list was built around the results that the source calls inconclusive (neither active nor inactive); the mix of calls is not that of the screen. Calls come from the whole dose curve; as a rule, active = well fitted inhibition curve with a large enough effect; inconclusive = small, poorly fitted or top-dose-only effect; inactive = flat fitted curve, though single readings scatter. Potencies of inconclusive entries are doubtful fits and often do not repeat.
# Experiment: qHTS for Inhibitors of human tyrosyl-DNA phosphodiesterase 1 (TDP1): qHTS in cells in presence of CPT; note: nearly all actives have a fitted effect of over 55% in size
# Conditions: chicken DT40 Tdp1-/-;hTDP1 cells + 20 nM CPT, ATP luminescence, 48 h; series mostly up to 46.2 µM
# Method in brief: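 Chicken DT40 Tdp1-/- cells complemented with human TDP1, 400 cells/well, exposed to compounds plus 20 nM camptothecin for at least 48 h at 37 C; viability read as ATP content by CellTiter-Glo luminescence.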
# Potency is the fitted concentration of half-maximal effect; tags give direction and shape of the fitted curve.
row,Compound,Potency
1,Cc1c(C(=O)N2CCOCC2)c(S(=O)(=O)Nc2ccc(C(C)C)cc2)c(C)n1C,active: 13 µM
2,O=C(CNC(=O)c1ccc(F)cc1)N/N=C/c1cn[nH]c1-c1ccccc1,inactive
3,c1ccc(-c2ccccc2OCCOCCN2CCCCC2)cc1,active: 23.1 µM
4,O=C(OC1CCCCC1=O)c1cccc(S(=O)(=O)N2CCCCC2)c1 (stereo not given),inactive
5,COc1ccc(C(=O)O)cc1S(=O)(=O)Nc1ccc2cn[nH]c2c1,inactive
6,O=C(CN1CCN(c2cccc(Cl)c2)CC1)Nc1ccc(S(=O)(=O)N2CCOCC2)cc1,active: 20.6 µM
7,O=C(Nc1cccc(C(=O)N2CCCC2)c1)C1CCCCC1,inactive
8,COc1ccc(CCC(=O)N2CCN(c3cccc(C)c3C)CC2)cc1,"inconclusive: 23.1 µM [inhibitor, single point]"
9,Cc1ccc(S(=O)(=O)c2nnn3c2nc(N2CCOCC2)c2ccccc23)cc1C,inactive
10,O=C1c2ccccc2NC(c2ccc(Cl)cc2Cl)N1O (stereo not given),"inconclusive: 16.4 µM [inhibitor, single point]"
11,Cc1ccc2cccc(NC(=O)c3ccc(C#N)cc3F)c2n1,inactive
12,CS(=O)(=O)c1nc(S(=O)(=O)c2ccc(Cl)cc2)c(N2CCN(CCO)CC2)s1,"inconclusive: 25.9 µM [inhibitor, single point]"
13,CCCCCCc1cc2cc(S(=O)(=O)c3ccc(F)c(Cl)c3)c(=O)oc2cc1O,active: 5.8 µM
14,COCC1CCCN(C(=O)c2ccc3oc(Cc4ccc(Cl)cc4)nc3c2)C1 (stereo not given),active: 23.1 µM
15,COCCCNC(=O)C1c2ccccc2Oc2ccccc21,inactive
16,CCN(CC)C(=O)c1sc2c(c1C)c(=O)n(-c1ccc(C)c(C)c1)c(=O)n2Cc1cccc(Cl)c1,active: 20.6 µM
17,Cc1cccc(S(=O)(=O)c2c(N)n(/N=C/c3ccco3)c3nc4ccccc4nc23)c1,"inconclusive: 25.9 µM [inhibitor, single point]"
18,Fc1ccc(-c2csc(Nc3ccccn3)n2)c(F)c1,"inconclusive: 16.4 µM [inhibitor, single point]"
19,COc1ccc(C(=O)NC2CC(C)(C)NC(C)(C)C2)cc1S(=O)(=O)N1CCOCC1,inactive
20,CC1CCC(NC(=O)CN(C)S(=O)(=O)c2ccc3c(c2)c(=O)n(C)c(=O)n3C)CC1 (stereo not given),"inconclusive: 29.1 µM [inhibitor, single point]"
21,CCCc1nc(SCC(=O)c2ccc(OC)cc2)c2ccccc2n1,"inconclusive: 29.1 µM [inhibitor, single point]"
22,O=C1CN(C(=O)c2ccc(S(=O)(=O)N3CCCCC3)cc2)C(c2ccc(F)cc2)c2cc(Br)ccc2N1 (stereo not given),active: 25.9 µM
23,COCCNC(=O)CSc1c2c(nc3ccc(Cl)cc13)CCCC2,active: 16.4 µM
24,Cc1[nH]c(=O)[nH]c(=O)c1Sc1ccccc1[N+](=O)[O-],inactive
25,CO/N=C/C=C1/N(C)c2ccccc2C1(C)C,"inconclusive: 29.1 µM [inhibitor, single point]"

row,Compound,Potency
1,CC(C)c1ccc(NC(=O)c2ccc3c(c2)C(=O)N(Cc2cccnc2)C3=O)cc1,inactive
2,CC(=O)N1CCc2cc(CNS(=O)(=O)c3ccc(C(C)(C)C)cc3)ccc21,"inconclusive: 25.9 µM [inhibitor, single point]"
3,Fc1ccc(-c2ccnc(=S)[nH]2)cc1,active: 20.6 µM
4,O=C(c1ccc(Cl)cc1Cl)N1CCC(c2nc3c(nnn3Cc3ccco3)c(=O)[nH]2)CC1,"inconclusive: 20.6 µM [inhibitor, single point]"
5,COc1ccc(C(C(=O)NCc2ccccc2)n2c(=O)c(-c3ccccc3)nc3ccccc32)cc1 (stereo not given),active: 14.6 µM
6,O=C(Nc1cccc(S(=O)(=O)Nc2ccc(Cl)cc2)c1)c1ccccn1,"inconclusive: 25.9 µM [inhibitor, single point]"
7,O=C(CC(Nc1cccc(Cl)c1Cl)C(=O)O)c1ccccc1 (stereo not given),inactive
8,Cc1ccc(NC(=O)C2CCN(c3ncccn3)CC2)cc1F,inactive
9,Cc1ccc2[nH]c(C(=O)O)c(NC(=O)CN3CCN(c4cccc(C)c4C)CC3)c2c1,"inconclusive: 29.1 µM [inhibitor, single point]"
10,COc1ccccc1-c1cc(C(F)(F)F)n2ncc(C(=O)N3CCc4ccccc4C3)c2n1,"inconclusive: 29.1 µM [inhibitor, single point]"
11,N#CCSc1nc(-c2ccccc2)nc2ccccc12,inactive
12,CCC(C(=O)N1CC2(C)CC1CC(C)(C)C2)N1C(=O)c2ccccc2C1=O (stereo not given),"inconclusive: 18.4 µM [inhibitor, single point]"
13,COCCn1c(=O)c(-c2cc(F)cc(F)c2)nc2cnc(OCc3ccccc3)nc21,inactive
14,COC(=O)c1ccc(Cl)c(NS(=O)(=O)c2ccc3c(c2)OCCO3)c1,active: 5.17 µM
15,COC1=NS(=O)(=O)c2ccccc21,inactive
16,O=C(COC(=O)c1cc(-c2cccs2)nn1-c1ccccc1)Nc1ccc(F)c([N+](=O)[O-])c1,inactive
17,O=C1CCC2CN3CCc4c([nH]c5ccccc45)C3CC2C1 (stereo not given),"inconclusive: 20.6 µM [inhibitor, single point]"
18,N#CCCN(C(=O)COC(=O)CCc1ccccc1)c1ccccc1,inactive
19,Nc1cc2c(cc1Cl)-c1ccccc1C2,"inconclusive: 29.1 µM [inhibitor, single point]"
20,COc1ccc(N=C(c2ccccc2)c2c(C)[nH]n(-c3ccccc3)c2=O)c(OC)c1,"inconclusive: 29.1 µM [inhibitor, single point]"
21,CCOC(=O)N1CCN(Cc2cc(=O)oc3cc4c(cc23)CCC4)CC1,"inconclusive: 29.1 µM [inhibitor, single point]"
22,O=C(CSc1cccs1)Nc1ccc2ccccc2c1,inactive
23,Cc1cccc(C)c1NC(=O)C(C1CC1)n1c(-c2ccc(-c3ccccc3)cc2)nc2ccccc21 (stereo not given),"inconclusive: 20.6 µM [inhibitor, single point]"
24,COc1ccc(C(=O)CC(=O)c2ccccc2)cc1,inactive
25,CCOc1ccc(NC(=O)CSc2nc(=O)n(CCN3CCOCC3)c3c2CCCC3)cc1,inactive

row,Compound,Potency
1,CCOC(=O)/C(=C\c1cccc(O)c1)c1nc2sc(C)c(C)c2c(=O)[nH]1,active: 9.2 µM
2,CCOC(=O)c1ccc(Cl)c(S(=O)(=O)N2CCCC2)c1,inactive
3,O=S(=O)(c1cccc(C(F)(F)F)c1)N1c2ccccc2-n2cccc2C1c1cccnc1 (stereo not given),"inconclusive: 18.4 µM [inhibitor, single point]"
4,O=C(O)CNC(=O)CNC(=O)CNC(=O)CSC(=O)c1ccccc1,inactive
5,COc1ccc(Cl)cc1Nc1nc2ccc(C)cc2n2cnnc12,active: 23.1 µM
6,CC(NC(=O)NC1CCCCC1)C(c1cccs1)N1CCN(Cc2ccccc2)CC1 (stereo not given),"inconclusive: 25.9 µM [inhibitor, single point]"
7,Nc1[nH]c(C(=O)c2ccccc2)c(-c2ccccc2Br)c1C(=O)NCCc1ccc(Cl)cc1Cl,"inconclusive: 29.1 µM [inhibitor, single point]"
8,COc1ccc(NC(=O)CSc2nc3ccccc3n2CC(=O)Nc2cccc(C)c2C)cc1,"inconclusive: 23.1 µM [inhibitor, single point]"
9,CCOc1ccccc1NC(=O)C(C)n1nnc2sc3c(c2c1=O)CCCC3 (stereo not given),"inconclusive: 25.9 µM [inhibitor, partial curve, poor fit]"
10,CCOc1c2c(nc3ccc(Cl)cc13)CCC2,"inconclusive: 13 µM [inhibitor, partial curve]"
11,Cc1ccc2[nH]c(=O)c(CN(Cc3cccs3)Cc3nnnn3CC3CCCO3)cc2c1 (stereo not given),"inconclusive: 29.1 µM [inhibitor, partial curve, poor fit]"
12,CCOc1ccccc1Nc1ncnc2ccccc12,"inconclusive: 25.9 µM [inhibitor, single point]"
13,CCn1cc(C(C)NC(=O)COc2ccc(Cl)cc2C)c(C)n1 (stereo not given),"inconclusive: 25.9 µM [inhibitor, single point]"
14,O=C(O)c1ccc(NC(=O)c2ccc(Cl)cc2)c(NC(=O)c2ccc(Cl)cc2)c1,inactive
15,O=C(CN1CCCCCC1)Nc1ccccc1OC(F)F,inactive
16,Cc1cccc(NC(=O)CSc2nnc([C@@H](N)Cc3ccccc3)o2)c1C,inactive
17,COCCn1c(C)cc(C(=O)CN2c3cccc4cccc(c34)S2(=O)=O)c1C,inactive
18,Cc1ccc2nc(SCC(=O)Nc3cccc(Cl)c3)nc(=O)n2c1,"inconclusive: 29.1 µM [inhibitor, single point]"
19,NC(=O)c1ccccc1NC(=S)NC(=O)c1ccc(Br)o1,"inconclusive: 8.2 µM [inhibitor, partial curve]"
20,Cc1nc2sc(C(=O)c3ccccc3)c(N)c2c2c1CCCC2,"inconclusive: 29.1 µM [inhibitor, single point]"
21,Cc1ccc(CCNC(=O)c2ccc(Cn3c(=O)c4cccn4c4cccnc43)cc2)cc1,"inconclusive: 20.6 µM [inhibitor, single point]"
22,Cc1ccc(-n2c(SCC(N)=O)nc3c(oc4ccccc43)c2=O)cc1,"inconclusive: 11.6 µM [inhibitor, partial curve, poor fit] and inconclusive: 25.9 µM [inhibitor, single point]"
23,COc1cc(OC)c(NC(=O)Nc2sc3nc4n(c(=O)c3c2C)CCC(C)CC4)cc1Cl (stereo not given),active: 5.17 µM
24,CN1CCN(CCCNC(=O)c2ccc3c(c2)N(Cc2ccccc2)CCS3)CC1,active: 20.6 µM
25,O=C(c1ccco1)N1CCN(c2ncnc3c2cnn3-c2ccccc2)CC1,"inconclusive: 20.6 µM [inhibitor, single point]"
